# Some of the results follow. Sequences were assembled here from the parent chain. Values near 0.05 are background.
# B1: TEV protease; numbered along this chain (parent)
# chain: MGESLFKGPRDYNPISSSICHLTNESDGHTTSLYGIGFGPFIITNKHLFRRNNGTLVVQSLHGVFKVKDTTTLQQHLVDGRDMIIIRMPKDFPPFPQKLKFREPQREERICLVTTNFQTKSMSSMVSDTSCTFPSGDGIFWKHWIQTKDGQCGSPLVSTRDGFIVGIHSASNFTNTNNYFTSVPKNFMELLTNQEAQQWVSGWRLNADSVLWGGHKVFMVKPEEPFQPVKEATQL
# Variants of: B1
# Assay: raw area under fraction-flipped curve 0-4 h after induction (AUC4h, not background-subtracted), DNA-recorder readout of cleavage of the substrate (dimensionless); higher = more cleavage of the substrate by the protease variant
# Settings: temperature: 34 °C; time window: 0-4 h after rhamnose induction
# Procedure: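 In vivo DNA recorder in E. coli TOP10(DE3) ΔrhaA at 34 °C. Each TEVp single-site mutant (parent TEVp 0) is paired with a single-site variant of the 7-mer TEVs (canonical ENLYFQ|S). The substrate sits between flexible linkers in a Bxb1-sfGFP-TEVs-SsrA fusion, so cleavage stabilises Bxb1 and speeds flipping of a recombination array, read by NGS. The value is the raw area under the fraction-flipped curve over 0-4 h after rhamnose induction (AUC4h), with ≥20 reads per time point. It is not background-subtracted; inactive controls average about 0.047.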
# 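Also: Bxb1 expression induced with 0.2% (w/v) L-rhamnose at OD600 near 0.5, cultures sampled hourly, flipped fraction per protease–substrate barcode pair counted by paired-end Illumina sequencing.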
Variant,area with substrate ENLYCQS,area with substrate ENLYEQS,area with substrate ENLYGQS,area with substrate ENLYHQS,area with substrate ENLYKQS,area with substrate ENLYLQS,area with substrate ENLYMQS,area with substrate ENLYNQS,area with substrate ENLYQQS,area with substrate ENLYTQS,area with substrate ENLYWQS,area with substrate ENLYDQS,area with substrate ENLYIQS,area with substrate ENLYVQS,area with substrate ENLYYQS,area with substrate ENLYPQS,area with substrate ENLYSQS,area with substrate ENLYRQS
MGESLFKGPRDYNPISSSICHLTNESDGHTTSLYGIGFGPFIITNKHLFRRNNGTLVVQSLHGVFKVKDTTTLQQHLVDGRDMIIIRMPKDFPPFPQKLKFREPQREERICLVITNFQTKSMSSMVSDTSCTFPSGDGIFWKHWIQTKDGQCGSPLVSTRDGFIVGIHSASNFTNTNNYFTSVPKNFMELLTNQEAQQWVSGWRLNADSVLWGGHKVFMVKPEEPFQPVKEATQL [T114I],0.0803,0.0589,0.0699,0.0575,0.0715,0.078,0.0909,0.0561,0.0636,0.0819,0.0777,,,,,,,
MGESLFKGPRDYNPISSSICHLTNESDGHTTSLYGIGFGPFIITNKHLFRRNNGTLVVQSLHGVFKVKDTTTLQQHLVDGRDMIIIRMPKDFPPFPQKLKFREPQREERICLVTTNAQTKSMSSMVSDTSCTFPSGDGIFWKHWIQTKDGQCGSPLVSTRDGFIVGIHSASNFTNTNNYFTSVPKNFMELLTNQEAQQWVSGWRLNADSVLWGGHKVFMVKPEEPFQPVKEATQL [F117A],0.0822,0.0758,,,,,,0.0701,0.059,,0.0819,0.0593,0.113,0.114,0.0454,,,
MGESLFKGPRDYNPISSSICHLTNESDGHTTSLYGIGFGPFIITNKHLFRRNNGTLVVQSLHGVFKVKDTTTLQQHLVDGRDMIIIRMPKDFPPFPQKLKFREPQREERICLVTTNQQTKSMSSMVSDTSCTFPSGDGIFWKHWIQTKDGQCGSPLVSTRDGFIVGIHSASNFTNTNNYFTSVPKNFMELLTNQEAQQWVSGWRLNADSVLWGGHKVFMVKPEEPFQPVKEATQL [F117Q],0.122,0.0729,0.0694,0.0291,,,0.0571,,,0.0805,0.073,0.0547,0.117,0.124,,0.0655,0.0825,
MGESLFKGPRDYNPISSSICHLTNESDGHTTSLYGIGFGPFIITNKHLFRRNNGTLVVQSLHGVFKVKDTTTLQQHLVDGRDMIIIRMPKDFPPFPQKLKFREPQREERICLVTTNSQTKSMSSMVSDTSCTFPSGDGIFWKHWIQTKDGQCGSPLVSTRDGFIVGIHSASNFTNTNNYFTSVPKNFMELLTNQEAQQWVSGWRLNADSVLWGGHKVFMVKPEEPFQPVKEATQL [F117S],0.0913,,,0.0684,0.0389,,,0.0599,,,0.0783,0.0521,0.127,0.142,0.0697,0.0744,0.08,0.0601
MGESLFKGPRDYNPISSSICHLTNESDGHTTSLYGIGFGPFIITNKHLFRRNNGTLVVQSLHGVFKVKDTTTLQQHLVDGRDMIIIRMPKDFPPFPQKLKFREPQREERICLVTTNFDTKSMSSMVSDTSCTFPSGDGIFWKHWIQTKDGQCGSPLVSTRDGFIVGIHSASNFTNTNNYFTSVPKNFMELLTNQEAQQWVSGWRLNADSVLWGGHKVFMVKPEEPFQPVKEATQL [Q118D],0.0764,0.0769,,0.0701,0.054,0.0806,0.069,0.0759,0.0909,,,0.0702,,,,0.0496,,
MGESLFKGPRDYNPISSSICHLTNESDGHTTSLYGIGFGPFIITNKHLFRRNNGTLVVQSLHGVFKVKDTTTLQQHLVDGRDMIIIRMPKDFPPFPQKLKFREPQREERICLVTTNFITKSMSSMVSDTSCTFPSGDGIFWKHWIQTKDGQCGSPLVSTRDGFIVGIHSASNFTNTNNYFTSVPKNFMELLTNQEAQQWVSGWRLNADSVLWGGHKVFMVKPEEPFQPVKEATQL [Q118I],0.0741,,0.0647,0.0912,,0.0747,0.0788,0.0844,0.0651,,0.0635,,,,,0.0708,0.1,0.06
MGESLFKGPRDYNPISSSICHLTNESDGHTTSLYGIGFGPFIITNKHLFRRNNGTLVVQSLHGVFKVKDTTTLQQHLVDGRDMIIIRMPKDFPPFPQKLKFREPQREERICLVTTNFKTKSMSSMVSDTSCTFPSGDGIFWKHWIQTKDGQCGSPLVSTRDGFIVGIHSASNFTNTNNYFTSVPKNFMELLTNQEAQQWVSGWRLNADSVLWGGHKVFMVKPEEPFQPVKEATQL [Q118K],0.078,0.0607,0.0669,0.0692,0.0475,,0.0828,0.0754,,0.0911,0.0652,0.0693,0.058,0.0583,0.0697,0.0678,,0.0552
MGESLFKGPRDYNPISSSICHLTNESDGHTTSLYGIGFGPFIITNKHLFRRNNGTLVVQSLHGVFKVKDTTTLQQHLVDGRDMIIIRMPKDFPPFPQKLKFREPQREERICLVTTNFQYKSMSSMVSDTSCTFPSGDGIFWKHWIQTKDGQCGSPLVSTRDGFIVGIHSASNFTNTNNYFTSVPKNFMELLTNQEAQQWVSGWRLNADSVLWGGHKVFMVKPEEPFQPVKEATQL [T119Y],0.0989,0.0682,,0.0712,0.0728,,0.0786,0.0699,0.0628,0.0645,,0.0528,0.122,,,0.0672,,0.0468
MGESLFKGPRDYNPISSSICHLTNESDGHTTSLYGIGFGPFIITNKHLFRRNNGTLVVQSLHGVFKVKDTTTLQQHLVDGRDMIIIRMPKDFPPFPQKLKFREPQREERICLVTTNFQTKSRSSMVSDTSCTFPSGDGIFWKHWIQTKDGQCGSPLVSTRDGFIVGIHSASNFTNTNNYFTSVPKNFMELLTNQEAQQWVSGWRLNADSVLWGGHKVFMVKPEEPFQPVKEATQL [M122R],0.0958,0.0725,0.067,0.089,,0.0915,,,0.093,,0.0688,0.0768,0.114,0.127,0.0688,,0.0906,
MGESLFKGPRDYNPISSSICHLTNESDGHTTSLYGIGFGPFIITNKHLFRRNNGTLVVQSLHGVFKVKDTTTLQQHLVDGRDMIIIRMPKDFPPFPQKLKFREPQREERICLVTTNFQTKSMYSMVSDTSCTFPSGDGIFWKHWIQTKDGQCGSPLVSTRDGFIVGIHSASNFTNTNNYFTSVPKNFMELLTNQEAQQWVSGWRLNADSVLWGGHKVFMVKPEEPFQPVKEATQL [S123Y],0.121,0.0843,,0.0599,,,,,0.0637,,,0.0521,0.0881,0.13,,,0.0657,
